Data taken from the supplement of paper PMC10126150.
Sequences with one replicate were seen in a single cluster, so their values are uncertain.

Test system: ATP
Assay: switch fluorescence ratio, 500 uM ATP over buffer (Cy3 cluster intensity, sum of 5 cycles each) (fold (ratio)); higher = stronger signal-on switching upon ATP binding; sequences stand for … in TCGTCGGCAGCGTCAGATGTGTATAAGAGACAGTTTTTTTTTTTTTTTTTTTTTTTTT…TC
Details: aptamer strand: ATP DNA aptamer (quencher-CACCTGGGGGAGTATTGCGGAGGAAGG + anchor), 100 nM annealed; ATP concentration: 500 uM; one replicate
Method in brief: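 Switching-strand clusters labelled with Cy3 on a modified Illumina MiSeq flow-cell were annealed to 100 nM quencher-labelled ATP aptamer, imaged in selection buffer, and re-imaged after 15 min with 500 uM ATP at 22 °C. This was done over five cycles with NaOH stripping and re-annealing in between. The fluorescence ratio is summed target-cycle over summed buffer-cycle Cy3 intensity per cluster, averaged per switch-domain sequence, excluding clusters outside 100-1000 RFU.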
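Further: ATP exposure 15 min at 22 °C before imaging.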

Row | Sequence | switch fluorescence ratio
1 | ACCCAGATCT | 1.02
2 | CCGACTTGGG | 1.03
3 | TATGCTGCGA | 1.04
4 | TTTAAGAGGA | 1.03
5 | AGCCGAATGT | 1.01
6 | TGCGTACGGC | 1.03
7 | AGGGAAGAGC | 1.05
8 | TGCTGGACGG | 1.03
9 | GGTTTGTCAA | 1.01
10 | CTATGTAACC | 1.07
11 | CCCGGTCCTG | 1.03
12 | TTTACCTCGC | 1.27
13 | CAGTATGAGC | 1.04
14 | CCTGACTATA | 1.12
15 | GCATTTTCCT | 0.999
16 | GCTAGGTATT | 1.02
17 | TTATCGTGGA | 0.97
18 | ATTCGGAGTC | 0.994
19 | GCCCTTTTT | 1
20 | TTATCAGCTT | 1.08
21 | TCTACTAAGA | 1.03
22 | GGGAAGTGCA | 0.984

Row | Sequence | switch fluorescence ratio
23 | GCAAAAGGCT | 0.983
24 | ATCGAAAGAA | 0.961
25 | AAGTAATTGG | 0.971
26 | TTGTTTGCGT | 1.02
27 | TCTCTATAT | 1.02
28 | CCAAGCGGTG | 1.17
29 | CGCTTTGGGC | 1
30 | TTGATAAAAT | 1.01
31 | GGTTAATATC | 1
32 | GGTTTCATTA | 1.05
33 | GGACGGAGGA | 0.924
34 | ATCGACAATT | 1.04
35 | AGATGACTAC | 1.02
36 | GACGGGCTCA | 1.01
37 | AGGGTACAGG | 1.11
38 | GCAATATCGT | 1.41
39 | AAGTTGGAAG | 1.01
40 | TAAACCCTGT | 1.03
41 | CCTAATATC | 1.22
42 | GGATCAATTG | 0.982
43 | GGATGCATCG | 0.968
44 | AGTTATCAAT | 0.985

Row | Sequence | switch fluorescence ratio
45 | AGGGATGGAA | 0.947
46 | GGCATCCTTA | 0.968
47 | AACCCGGAAA | 1.01
48 | AATACAAGTT | 1.01
49 | TAATGGAGCA | 0.973
50 | GGTTTTCGAT | 1.05
51 | GAGGTTCCGC | 1.08
52 | GGCATCAGG | 1.09
53 | TTTTCGTCTG | 0.995
54 | CAGCGATAGT | 1.44
55 | TCCACATTTC | 1.07
56 | TGCAAATGGC | 1.08
57 | GGCTGCCTAC | 1.06
58 | CCGATCCGGG | 1.02
59 | CCTGTTACAC | 1.02
60 | ATCATGAATT | 0.987
61 | CGTCTACCAT | 1.02
62 | TTAAGATGTG | 0.971
63 | AGTAACAGG | 1.06
64 | GCATACACAG | 1.05
65 | AAGTGGATAC | 1.06
66 | CCCCCCCTAA | 1.55

Row | Sequence | switch fluorescence ratio
67 | TAATTCGTTT | 1.04
68 | AAGGCCATAG | 1.01
69 | TATTTAATGT | 0.983
70 | ACTTTCCCCG | 3.22
71 | GGGGTTGCAA | 0.992
72 | CTCGATCTCT | 0.966
73 | GGATGTCTGT | 0.994
74 | ATTATCATTA | 0.964
75 | TTATGCATGG | 0.977
76 | GCAGCGAATC | 3.68
77 | ATTAAGTATT | 1.12
78 | GGAAGCCGGC | 1.05
79 | AGCTCTGCCA | 1.03
80 | AAAATGAGAT | 0.98
81 | CATAGTAGCT | 0.991
82 | ATGAGCTTGT | 1.59
83 | GGTTCAATCA | 0.983
84 | CGATATTACG | 0.982
85 | GGGCAATGGT | 1.22
